# In PubChem BioAssay (NCATS):
# Values joined by “and” are separate entries in the source; they are usually repeats but may differ in a detail not shown here. Identical values can stand only once. Inconclusive means that the source gave no clear call. Such entries were picked first, then a sample of the others. For some of these results: Potencies beside an inconclusive call are fits to weak or partial responses and may not hold up. For some of these results: “Side channel” marks fits to a control or component signal instead of the main read-out. Active and inactive are the calls of the source. Unless noted, calls come from the whole dose curve; as a rule, active = well fitted curve in the direction sought with a large enough effect; inconclusive = small, poorly fitted or top-dose-only effect, or another doubt; inactive = no such curve, though single readings can be large; an effect the other way counts as inactive or inconclusive.
# How the values were obtained:
# [1] = AP1 Signaling Pathway (AID 357; active = well fitted curve in either direction with a large enough effect, not every such curve was filed as active; inconclusive = small, poorly fitted or top-dose-only effect, or another doubt;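 note: ME-180 reporter cells stimulated with EGF at its EC50 level; top concentration of the series differs between compounds; % is set by controls: 0 for no effect and ±100 for the full control effect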); conditions: ME-180 AP-1-bla reporter, EGF-induced, beta-lactamase ratio, 5 h; at 7.69 µM (top of the series) unless noted
# Method in brief: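 Cells are seeded overnight, exposed to compound titrations and an EC50 level of EGF for 5 hours at 37 °C, then loaded with CCF4 dye for 2.5 hours. Beta-lactamase activity under the AP-1 element is read as a blue/green ratio.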
# [2] = NFAT Signaling Pathway (AID 444; active = well fitted curve in either direction with a large enough effect, not every such curve was filed as active; inconclusive = small, poorly fitted or top-dose-only effect, or another doubt;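 note: carbachol stimulus at about its EC50 of 1 µM final; % is set by controls: 0 for no effect and ±100 for the full control effect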); conditions: Jurkat NFAT-bla M1, carbachol, beta-lactamase ratio, 5 h; at 7.69 µM (top of the series) unless noted
# Method in brief: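 Jurkat cells carrying an NFAT-driven β-lactamase reporter and co-transfected muscarinic M1 receptor were treated with compound plus carbachol (1 uM final, an EC50 level) for 5 h at 37 °C. CCF4 loading followed for 1 h at RT; 460/530 nm ratio gave %activity.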
# [3] = Stat Signaling Pathway (AID 446; active = well fitted curve in either direction with a large enough effect, not every such curve was filed as active; inconclusive = small, poorly fitted or top-dose-only effect, or another doubt;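 note: ME-180 cervical cancer cells given 40 pM IL-6 alongside compound; SIE-controlled beta-lactamase reporter measured as 460/530 nm FRET emission ratio; top concentration of the series differs between compounds; % is set by controls: 0 for no effect and ±100 for the full control effect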); conditions: ME-180 SIE beta-lactamase reporter, IL-6 stimulated, 5 h; at 7.69 µM (top of the series) unless noted
# Method in brief: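 Compound effects on IL-6-induced STAT reporter activity were measured in ME-180 cells. After overnight culture, cells were co-treated with 40 pM IL-6 for 5 hrs before beta-lactamase substrate loading at room temperature.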
# [4] = target: 3',5'-cyclic-AMP phosphodiesterase 4B (Homo sapiens) (UniProt Q07343); test: qHTS Assay for Inhibitors of PDE-IV (AID 607; active = well fitted activation curve with a large enough effect in the main read-out, with a control signal flat, not every such curve was filed as active; inconclusive = small, poorly fitted or top-dose-only effect, or effect the other way, or a change in a side signal; note: potency is the fitted concentration of half-maximal effect); conditions: HEK293 ACTOne CNG channel cells, membrane potential fluorescence; activation (PDE inhibition): at 22.9 µM (top of the series)
# Method in brief: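 ACTOne HEK293 cells carry a modified cAMP-gated CNG channel and express endogenous PDE4; plated 1000 cells/well, compounds up to 22.9 uM final. Membrane-potential dye fluorescence (ex 535/em 590) was read; parental cells received 10 uM forskolin + 100 uM RO 20-1724.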
# [5] = qHTS Assay for Identification of Small Molecule Agonists for Hypoxia Response Element Signaling Pathway (AID 914; active = well fitted activation curve with a large enough effect in the signal ratio, with a control signal flat, not every such curve was filed as active; inconclusive = small, poorly fitted or top-dose-only effect, or effect the other way, or a change in a side signal; the % refers to the signal ratio; note: potency is the fitted concentration of half-maximal effect); conditions: ME-180 (cervical carcinoma) HRE-bla reporter, beta-lactamase ratio, CoCl2, 17 h; activation: stronger effect = higher value
# Method in brief: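 In Opti-MEM containing 0.5% dialyzed FBS and 10 mM HEPES, ME-180 HRE-bla cells received a compound titration and EC50 CoCl2. They were incubated 17 hours, then CCF4-loaded 2.5 hours at room temperature before ratio reading.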
# [6] = qHTS Assay for Lipid Storage Modulators (AID 1519; calls by dose curve; note: % is set by controls: 0 for no effect and ±100 for the full control effect); conditions: Drosophila S3 cells, BODIPY lipid droplet/cell ratio, laser cytometry, cells loaded with oleic acid; activity change, negative = inhibition: at 57.5 µM (top of the series) unless noted
# Method in brief: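 Cells seeded at 5,000 per well were treated with compounds over a concentration series and loaded with oleic acid (400 uM, as added). Lipid droplet fluorescence (488 nm excitation, 500-530 nm channel) was read by laser-scanning cytometry and normalized to 20 uM Triacsin C.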
# [7] = Confirmatory qHTS for small molecule stabilizers of the endoplasmic reticulum resident proteome: Secreted ER Calcium Modulated Protein (SERCaMP) assay (AID 1508628); note: potency is the fitted concentration of half-maximal effect; nearly all actives have a fitted effect of over 40% in size
# Method in brief: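 GLuc-SERCaMP-expressing SH-SY5Y cells, pretreated 16 h with compound, are challenged with thapsigargin to empty ER calcium stores; after 4 h, coelenterazine is added directly to the medium and luminescence is imaged.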
# [8] = Primary qHTS for small molecule stabilizers of the endoplasmic reticulum resident proteome: Secreted ER Calcium Modulated Protein (SERCaMP) assay (AID 1508630); conditions: SH-SY5Y GLuc-SERCaMP (Gaussia luciferase released on ER calcium loss) secretion, thapsigargin, luminescence; activity change, negative = inhibition: at 38.4 µM (top of the series) unless noted; note: potency is the fitted concentration of half-maximal effect
# Method in brief: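 The SH-SY5Y reporter protocol was run at 3 concentrations up to 38.3 uM (primary) or 11 concentrations (follow-up): 16 h compound, 100 nM thapsigargin for 4 h, then extracellular luciferase luminescence.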
# [9] = target: Cytochrome P450 1A2 (Homo sapiens) (UniProt P05177); test: p450-cyp1a2 (AID 410; calls by dose curve; note: potency is the fitted concentration of half-maximal effect)
# Method in brief: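 Read-out is luminescence from luciferin produced by CYP1A2 demethylation of Luciferin-ME (100uM, at Km). Detection reagent stopped the 60 min NADPH-dependent reaction; signals were normalized to 57 uM furafylline.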
# [10] = target: Dual specificity protein kinase CLK4 (Homo sapiens) (UniProt Q9HAZ1); test: qHTS Assay for Inhibitors of CDC-like Kinase 4 (ADP-Glo Assay) (AID 1771); note: % is set by controls: 0 for no effect and ±100 for the full control effect; nearly all actives have a fitted effect of over 70% in size
# Method in brief: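 In this ADP-Glo format, 1 uM ATP and 100 uM RS peptide served as substrates for 25 nM Clk4 in Mg2+/EGTA/DTT/Triton buffer; reactions ran 1 hr at room temperature before luminescent ADP quantification.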
# [11] = target: Ubiquitin carboxyl-terminal hydrolase 1 (Homo sapiens) (UniProt O94782); test: Inhibitors of USP1/UAF1: Pilot qHTS (AID 504865); note: potency is the fitted concentration of half-maximal effect;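 note: rhodamine fluorescence freed from ubiquitin-rhodamine substrate followed over time; nearly all actives have a fitted effect of over 35% in size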
# Method in brief: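 1nM USP1/UAF1 + cpd, 15 min RT; start w/ Ub-Rho 150nM final; kinetic FL 480/540 nm, 6 reads q60 s. Buffer 50mM HEPES pH 7.8, 0.5mM EDTA, 1mM TCEP, 0.01% Tween-20, 0.1 mg/ml BSA.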
# [12] = Cell Viability qHTS for small molecule stabilizers of the endoplasmic reticulum resident proteome (AID 1508629); conditions: cell viability counter-screen, 100 nM thapsigargin for final 4 h;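 note: compound exposure about 46 h in total before the viability read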; note: potency is the fitted concentration of half-maximal effect
# [13] = target: Dual specificity protein kinase CLK4 (Homo sapiens) (UniProt Q9HAZ1); test: qHTS Assay for Inhibitors of CDC-like Kinase 4 (Kinase-Glo Assay) (AID 1770); note: potency is the fitted concentration of half-maximal effect; nearly all actives have a fitted effect of over 65% in size
# Method in brief: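 Readout: Kinase-Glo luminescence from ATP left after a 4.5 h room-temperature reaction of 25 nM Clk4 with 100 uM RS peptide and 1 uM ATP (final). Buffer: 25 mM Tris pH 7.5, 10 mM MgCl2.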
# Tags give direction and shape of the fitted curve or compound fluorescence and quenching.
# UniProt O94782, sequence (O94782 whole entry, looked up): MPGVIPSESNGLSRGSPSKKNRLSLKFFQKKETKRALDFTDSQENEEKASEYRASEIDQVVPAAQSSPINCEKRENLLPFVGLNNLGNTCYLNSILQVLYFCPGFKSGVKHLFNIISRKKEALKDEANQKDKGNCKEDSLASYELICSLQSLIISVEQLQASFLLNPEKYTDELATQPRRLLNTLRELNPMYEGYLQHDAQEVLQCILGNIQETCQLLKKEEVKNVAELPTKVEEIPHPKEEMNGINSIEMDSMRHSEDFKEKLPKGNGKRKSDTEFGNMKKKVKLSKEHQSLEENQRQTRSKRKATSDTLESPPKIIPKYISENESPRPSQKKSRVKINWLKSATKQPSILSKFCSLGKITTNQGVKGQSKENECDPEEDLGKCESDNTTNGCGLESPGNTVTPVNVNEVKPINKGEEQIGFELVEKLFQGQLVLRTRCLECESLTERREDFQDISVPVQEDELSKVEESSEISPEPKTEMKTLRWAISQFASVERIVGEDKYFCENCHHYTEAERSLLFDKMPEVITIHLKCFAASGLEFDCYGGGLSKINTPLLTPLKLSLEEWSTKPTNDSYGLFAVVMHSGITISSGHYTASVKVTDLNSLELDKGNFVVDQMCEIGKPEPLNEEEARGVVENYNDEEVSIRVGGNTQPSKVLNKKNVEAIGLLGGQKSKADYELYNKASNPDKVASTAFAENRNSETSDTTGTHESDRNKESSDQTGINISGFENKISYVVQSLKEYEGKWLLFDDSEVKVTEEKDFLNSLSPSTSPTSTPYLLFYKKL
# UniProt P05177, sequence (P05177 whole entry, looked up): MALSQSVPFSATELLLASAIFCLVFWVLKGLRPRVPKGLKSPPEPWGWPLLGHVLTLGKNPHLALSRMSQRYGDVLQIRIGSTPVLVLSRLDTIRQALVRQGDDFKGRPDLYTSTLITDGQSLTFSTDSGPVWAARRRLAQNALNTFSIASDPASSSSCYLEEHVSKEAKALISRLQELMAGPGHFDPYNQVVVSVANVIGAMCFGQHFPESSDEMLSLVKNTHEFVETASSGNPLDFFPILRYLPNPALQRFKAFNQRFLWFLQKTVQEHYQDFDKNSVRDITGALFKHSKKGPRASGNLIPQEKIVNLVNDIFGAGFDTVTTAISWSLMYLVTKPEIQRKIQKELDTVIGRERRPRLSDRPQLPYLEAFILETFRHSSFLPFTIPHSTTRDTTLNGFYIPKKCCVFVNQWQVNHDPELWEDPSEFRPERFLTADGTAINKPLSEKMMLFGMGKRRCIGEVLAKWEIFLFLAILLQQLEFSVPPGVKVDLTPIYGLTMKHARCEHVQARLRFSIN
# UniProt Q07343, sequence (Q07343 whole entry, looked up): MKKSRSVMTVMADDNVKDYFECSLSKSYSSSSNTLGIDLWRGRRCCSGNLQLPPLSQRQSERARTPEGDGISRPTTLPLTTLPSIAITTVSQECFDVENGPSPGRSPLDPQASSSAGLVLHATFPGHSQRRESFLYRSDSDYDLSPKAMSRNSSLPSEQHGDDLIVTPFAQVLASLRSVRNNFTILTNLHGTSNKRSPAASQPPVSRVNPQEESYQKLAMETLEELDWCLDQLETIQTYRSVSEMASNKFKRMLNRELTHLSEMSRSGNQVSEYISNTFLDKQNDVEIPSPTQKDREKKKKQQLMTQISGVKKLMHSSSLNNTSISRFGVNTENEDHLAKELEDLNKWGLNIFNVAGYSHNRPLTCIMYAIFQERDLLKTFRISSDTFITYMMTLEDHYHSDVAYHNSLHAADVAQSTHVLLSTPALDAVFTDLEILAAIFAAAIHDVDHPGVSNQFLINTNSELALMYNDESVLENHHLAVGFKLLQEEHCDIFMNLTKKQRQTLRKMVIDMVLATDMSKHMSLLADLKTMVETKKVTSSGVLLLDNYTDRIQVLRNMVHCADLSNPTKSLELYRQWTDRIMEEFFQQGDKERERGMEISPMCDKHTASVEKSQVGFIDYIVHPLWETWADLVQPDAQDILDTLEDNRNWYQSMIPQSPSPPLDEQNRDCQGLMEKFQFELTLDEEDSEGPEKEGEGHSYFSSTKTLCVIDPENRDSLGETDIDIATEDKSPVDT
# UniProt Q9HAZ1, sequence (Q9HAZ1 whole entry, looked up): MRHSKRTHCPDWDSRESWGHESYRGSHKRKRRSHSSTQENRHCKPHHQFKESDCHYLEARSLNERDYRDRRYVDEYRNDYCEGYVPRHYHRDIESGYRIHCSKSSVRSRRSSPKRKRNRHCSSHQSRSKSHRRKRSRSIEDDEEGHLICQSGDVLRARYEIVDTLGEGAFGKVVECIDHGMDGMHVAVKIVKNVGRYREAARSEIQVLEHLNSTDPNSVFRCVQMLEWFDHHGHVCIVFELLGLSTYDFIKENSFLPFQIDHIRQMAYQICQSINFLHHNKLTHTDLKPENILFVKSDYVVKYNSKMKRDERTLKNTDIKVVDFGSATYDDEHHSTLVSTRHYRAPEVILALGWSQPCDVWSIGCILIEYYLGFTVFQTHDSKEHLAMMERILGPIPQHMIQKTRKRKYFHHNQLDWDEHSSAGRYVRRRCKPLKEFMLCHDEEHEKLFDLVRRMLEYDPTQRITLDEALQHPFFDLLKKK
compound,measurement,setting,value
CN1CCN(c2ncc3nc(-c4cccs4)c(=O)n(C[C@H]4CCCO4)c3n2)CC1,"activity change, negative = inhibition",[1],inactive: 19.1%
same,"activity change, negative = inhibition",[2],inconclusive: 34% [activator]
same,"activity, negative = inhibition",[3],inconclusive: 67.3% [activator]
same,Potency,[4],"inconclusive: 2 µM [activator, single point]"
same,Potency,[5],active: 3.16 µM
same,"activity change, negative = inhibition",[6],inconclusive: 3.34%
same,Potency,[7],"inconclusive: 31.6 µM [inhibitor, partial curve]"
same,Potency,[8],"inconclusive: 12.6 µM [inhibitor, partial curve, poor fit]"
O=C(Nc1cccc(F)c1)N1CCCC2(CCNCC2)C1,"activity change, negative = inhibition",[6],inconclusive: 5.55%
same,Potency,[7],"inconclusive: 44.7 µM [inhibitor, partial curve, poor fit]"
same,Potency,[8],"inconclusive: 10 µM [inhibitor, partial curve, poor fit]"
Cc1ccccc1-c1nc(N2CCN(C)CC2)c2ccccc2n1,Potency,[9],active: 3.98 µM
same,Potency,[4],"inconclusive: 10 µM [activator, partial curve]"
same,Potency,[10],inactive
same,Potency,[11],active: 28.2 µM
same,Potency,[12],"inconclusive: 0.199 µM [rising, full curve]"
same,Potency,[8],"inconclusive: 7.94 µM [inhibitor, partial curve, poor fit]"
CN1CCN(C2=Cc3ccccc3Oc3ccc(Cl)cc32)CC1,Potency,[4],"inconclusive: 15.1 µM [rising, partial curve]"
same,Potency,[11],"inconclusive: 56.2 µM [inhibitor, partial curve]"
same,Potency,[7],"inconclusive: 31.6 µM [inhibitor, full curve]"
same,Potency,[8],"inconclusive: 31.6 µM [inhibitor, single point] and inconclusive: 31.6 µM [inhibitor, partial curve, poor fit]"
CN1CCN(c2nc(-c3ccc4c(c3)OCO4)nc3ccccc23)CC1,"activity change, negative = inhibition",[2],inconclusive: 32.2% [activator]
same,Potency,[4],"inconclusive: 6.31 µM [activator, partial curve]"
same,Potency,[13],active: 17.8 µM
same,Potency,[11],inactive
same,Potency,[12],"inconclusive: 0.0708 µM [rising, full curve]"
same,Potency,[8],"inconclusive: 10 µM [inhibitor, partial curve, poor fit]"
CN1CCN(c2ncc3nc(-c4ccccc4)c(=O)n(-c4ccccc4)c3n2)CC1,"activity change, negative = inhibition",[1],inconclusive: 44.7% [activator]
same,"activity change, negative = inhibition",[2],inconclusive: 116% [activator]
same,"activity, negative = inhibition",[3],inconclusive: 72.1% [activator]
same,"activity change, negative = inhibition",[6],inconclusive: 3.92%
same,Potency,[12],"inconclusive: 11.2 µM [cytotoxic, full curve]"
same,Potency,[8],"inconclusive: 7.94 µM [inhibitor, partial curve, poor fit]"
COCCn1c(=O)c(-c2ccc(OC)cc2)nc2cnc(N3CCNCC3)nc21,"activity change, negative = inhibition",[1],inconclusive: 78.4% [activator]
same,Potency,[9],active: 6.31 µM
same,"activity change, negative = inhibition",[2],inconclusive: 165% [activator]
same,"activity, negative = inhibition",[3],inconclusive: 140% [activator]
same,Potency,[12],"inconclusive: 0.178 µM [rising, full curve]"
same,Potency,[8],"inconclusive: 10 µM [inhibitor, partial curve, poor fit]"
COc1ccc(-c2nc3cnc(N4CCNCC4)nc3n(-c3ccccc3)c2=O)cc1,"activity change, negative = inhibition",[1],inconclusive: 51.2% [activator]
same,"activity change, negative = inhibition",[2],inconclusive: 157% [activator]
same,"activity, negative = inhibition",[3],inconclusive: 240% [activator]
same,Potency,[5],"inconclusive: 3.16 µM [fluorescent, side channel, partial curve]"
same,Potency,[6],inactive
same,Potency,[12],"inconclusive: 17.8 µM [cytotoxic, partial curve]"
same,Potency,[8],"inconclusive: 11.2 µM [inhibitor, partial curve, poor fit]"
N#Cc1cc2c(OCC(O)CN3CCN(C(c4ccccc4)c4ccccc4)CC3)cccc2[nH]1 (stereo not given),Potency,[12],"inconclusive: 11.2 µM [cytotoxic, partial curve, poor fit]"
same,max response,[12],inactive: 3.24%
same,Potency,[8],"inconclusive: 10 µM [inhibitor, partial curve, poor fit]"
COc1ccc(-n2c(=O)cnc3cnc(N4CCNCC4)nc32)cc1,Potency,[9],active: 12.6 µM
same,"activity change, negative = inhibition",[6],inconclusive: 7.32%
same,Potency,[7],"inconclusive: 44.7 µM [inhibitor, partial curve]"
same,Potency,[8],"inconclusive: 5.62 µM [inhibitor, partial curve, poor fit]"
CC(C)C[C@H]1C(=O)N2CCC[C@@H]2[C@]2(O)O[C@](NC(=O)[C@@H]3C=C4c5cccc6[nH]c(Br)c(c56)C[C@H]4N(C)C3)(C(C)C)C(=O)N12,Potency,[7],active: 10 µM
same,Potency,[8],"inconclusive: 7.94 µM [inhibitor, partial curve, poor fit]"
